The record followed here is publication PMC4336329 (PLoS ONE, 2015).

Screen size: about 310,000 compounds; about 2,200 (0.71%) showed an effect of 50% or more. The effect is printed as a negative number. Some of the results follow.

The target of the experiment is human ether-à-go-go-related gene (hERG) potassium channel (human, UniProt Q12809). As to the kind of experiment: primary screen, population patch clamp on CHO cells stably expressing hERG.
Sequence of human ether-à-go-go-related gene (hERG) potassium channel (Q12809 whole entry, looked up): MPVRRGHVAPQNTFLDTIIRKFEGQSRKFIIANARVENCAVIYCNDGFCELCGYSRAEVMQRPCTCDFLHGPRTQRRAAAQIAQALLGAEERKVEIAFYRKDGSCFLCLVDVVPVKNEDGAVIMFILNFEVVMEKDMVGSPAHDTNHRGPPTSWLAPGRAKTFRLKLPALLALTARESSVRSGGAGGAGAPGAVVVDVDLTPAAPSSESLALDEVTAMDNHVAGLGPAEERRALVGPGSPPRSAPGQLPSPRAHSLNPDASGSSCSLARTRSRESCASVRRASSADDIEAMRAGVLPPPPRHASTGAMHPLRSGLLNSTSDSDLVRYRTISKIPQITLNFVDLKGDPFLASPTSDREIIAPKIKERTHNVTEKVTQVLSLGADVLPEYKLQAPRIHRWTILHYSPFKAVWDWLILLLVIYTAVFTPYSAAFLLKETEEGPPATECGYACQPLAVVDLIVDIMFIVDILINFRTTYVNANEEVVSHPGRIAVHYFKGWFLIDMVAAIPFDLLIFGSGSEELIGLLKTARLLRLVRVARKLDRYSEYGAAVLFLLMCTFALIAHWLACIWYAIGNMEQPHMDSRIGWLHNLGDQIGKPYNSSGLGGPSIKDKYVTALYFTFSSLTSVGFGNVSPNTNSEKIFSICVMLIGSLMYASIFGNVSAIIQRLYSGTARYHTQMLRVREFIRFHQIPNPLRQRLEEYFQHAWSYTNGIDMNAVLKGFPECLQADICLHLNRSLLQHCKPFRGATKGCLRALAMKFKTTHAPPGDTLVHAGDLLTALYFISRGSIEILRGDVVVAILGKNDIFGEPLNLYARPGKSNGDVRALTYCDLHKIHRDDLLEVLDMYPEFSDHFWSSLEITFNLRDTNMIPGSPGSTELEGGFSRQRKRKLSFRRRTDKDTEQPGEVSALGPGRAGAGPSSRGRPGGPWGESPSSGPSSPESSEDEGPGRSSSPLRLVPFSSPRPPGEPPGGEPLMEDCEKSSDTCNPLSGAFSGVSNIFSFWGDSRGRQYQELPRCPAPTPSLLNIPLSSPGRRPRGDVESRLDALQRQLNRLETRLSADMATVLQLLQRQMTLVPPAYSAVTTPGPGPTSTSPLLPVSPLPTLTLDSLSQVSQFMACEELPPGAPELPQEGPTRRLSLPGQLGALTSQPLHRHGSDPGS
Regarding `CCOc1ccc(NC(=O)C(=O)NCCCn2ccnc2)cc1`, the “hERG current change (%, negative = inhibition) at 1uM” value was found to be 11.3%.
Regarding `CCOC(=O)NC(=O)CSc1ccc(S(=O)(=O)N(C)C2CCCCC2)cn1`, the “hERG current change (%, negative = inhibition) at 1uM” value is -4.11%.
As for `Cl.OCCN1CCN(CC/C=C2/c3ccccc3Sc3ccc(C(F)(F)F)cc32)CC1`, the “hERG current change (%, negative = inhibition) at 1uM” value was 7.66%.
Consider `CN1CCN(C(=O)C2CCN(S(=O)(=O)c3ccc4c(c3)oc(=O)n4C)CC2)CC1`, for which the “hERG current change (%, negative = inhibition) at 1uM” value is 4.06%.
For the compound `COc1cccc(N2C(=O)NC(=O)/C(=C\c3cn(C)c4ccccc34)C2=O)c1`, the “hERG current change (%, negative = inhibition) at 1uM” value turned out to be 10.4%.
In the case of `COCC1CCN(Cc2nc(-c3ccc4c(c3)OCO4)no2)C1` (stereo not shown) it was -0.044%.
With `CC(=O)NC1=NN(C(C)=O)C(C)(c2ccc(Cl)s2)S1` (stereo not shown), the “hERG current change (%, negative = inhibition) at 1uM” value is reported as -4.71%.
Take `Cl.OCCNc1nc(Nc2ccc(Cl)c(Cl)c2)nc2ccccc12`: the “hERG current change (%, negative = inhibition) at 1uM” value is given as 14.3%.
For `COc1ccc(CCN2C(=O)C3CC=C(C)CC3C2=O)cc1OC` (stereo not shown), the “hERG current change (%, negative = inhibition) at 1uM” value is listed as -9.5%.
Consider `COc1ccc(N2CCN(C(=O)c3cccc(Cn4cc(Cl)cn4)c3)CC2)cc1`, for which the “hERG current change (%, negative = inhibition) at 1uM” value is -6.31%.
The figure for `CC12CCC(C(=O)NCc3ccccc3)(OC1=O)C2(C)C` (stereo not shown) is 1.27%.
`COc1cc(NS(=O)(=O)c2ccc(N)cc2)ncn1`: the “hERG current change (%, negative = inhibition) at 1uM” value was 21.1%.
For the compound `CCOc1ccc2oc(C(=O)N(CC)CC(=O)Nc3c(F)cccc3F)c(C)c2c1`, the “hERG current change (%, negative = inhibition) at 1uM” value is given as 2.73%.
The figure for `COCCN1C(=O)/C(=C/c2cc3c(cc2Br)OCO3)NC1=S` is 11.9%; for `CS(=O)(=O)N1CCC(C(=O)Nc2ccc(F)c(Cl)c2)CC1` it is 18.9%; for `CC1CC(C)(C)NC(=S)N1CCC(=O)N1CCc2ccccc21` (stereo not shown) it is 8.92%.
As for `O=C(N/N=C/c1ccc(F)cc1)c1c(O)c2ccccc2[nH]c1=O`, the “hERG current change (%, negative = inhibition) at 1uM” value is -5.47%.
In the case of `CCNc1nc(NCC)nc(N(C#N)C(C)C)n1` it was 7.81%; in that of `Cc1ccc(C(=O)OCc2cc(=O)n3c(C)csc3n2)s1`, 3.84%; in that of `COCCCN1C(=O)C2C(C(=O)Nc3cccc(Cl)c3)C3C=CC2(O3)C1C(=O)NC1CCCCC1` (stereo not shown), 5.41%.
In the case of `O=C(COC(=O)c1cn(-c2ccccc2)nc1-c1cccs1)NC1CC1` it was 9.77%; in that of `Cc1c(O)c(C)c2c(c1O)C(=O)C[C@@H](c1ccccc1)O2`, 11.1%.
On to `Cc1cccc2cc(C#N)c(NCCCNS(=O)(=O)c3ccc(Cl)cc3)nc12`, for which the “hERG current change (%, negative = inhibition) at 1uM” value came to 19.1%.
The figure for `CN(CC(=O)N(C)CC(=O)Nc1c(Cl)cccc1Cl)Cc1ccc(Br)s1` is -11.8%; for `CCCc1nc(SCC(=O)Nc2nnc(CC)s2)c2c(=O)n(C)c(=O)n(C)c2n1` it is 10.7%; for `CC(=O)c1cn(CCCCCCCn2cc(C(C)=O)c(=O)[nH]c2=O)c(=O)[nH]c1=O` it is 1.48%.
The figure for `Cc1cccc(-n2ncc3c(N)ncnc32)c1` is 1.41%; for `COc1ccc(NC(=O)C(c2ccccc2)c2ccccc2)cn1` it is 3.9%; for `CCn1c(SCC(=O)Nc2cc(C)c(Cl)cc2OC)nnc1-c1ccco1` it is 2.61%.
The figure for `CCCn1c(=O)c(C(=O)NNC(=O)c2ccccc2Cl)c(O)c2ccccc21` is 11.4%; for `O=S(=O)(Nc1nccs1)c1ccc2c(c1)OCCO2` it is 3%; for `CCN1CCN(C(=O)/C=C/c2ccc(OC)cc2)CC1` it is 5.09%.
In the case of `Cc1ccc(CNc2oc(-c3ccco3)nc2C#N)cc1`, the “hERG current change (%, negative = inhibition) at 1uM” value worked out at 0.865%.
Turning to `Cc1cccc2sc(N(CCN(C)C)C(=O)C3CCN(S(=O)(=O)c4cccs4)CC3)nc12.Cl`, the “hERG current change (%, negative = inhibition) at 1uM” value is 6.37%.
For the compound `CCN(CC)c1ccc2c(Nc3ccccc3)c(C=O)c(=O)oc2c1`, the “hERG current change (%, negative = inhibition) at 1uM” value was found to be 8.76%.
The figure for `O=C(O)C1CCCCC1C(=O)NCCC(c1ccccc1)c1ccccc1` (stereo not shown) is 15.4%; for `O=C(Nc1ccc(S(=O)(=O)Nc2nccs2)cc1)c1nn(-c2ccc(F)cc2)ccc1=O` it is 14.7%; for `CCC(C)NC(=O)c1ccc(C)c(NC(=O)C2=C(C)OCCS2)c1` (stereo not shown) it is 11.3%.
In the case of `Cc1nnc(Sc2nc3c(c(=O)n(C)c(=O)n3C)n2Cc2ccccc2Cl)s1` it was 9%; in that of `CC(C(O)c1ccc(O)cc1)N1CCC(Cc2ccccc2)CC1.O.O=C(O)C(O)C(O)C(=O)O` (stereo not shown), -37.8%.
As to `Cc1ccc(/C=N/NC(=O)C(C)NC(=O)c2ccccc2)cc1` (stereo not shown), the “hERG current change (%, negative = inhibition) at 1uM” value was 14.1%.
In the case of `O=[N+]([O-])c1c(Nc2ccc(O)cc2)cc(Cl)c2nonc12` it was 5.34%; in that of `CCNc1nc(NC(C)(C)C)nc(SC)n1`, 9.6%; in that of `COc1cccc(NC(=O)C2CC(=O)N(C)C(=Nc3cccc(F)c3)S2)c1` (stereo not shown), 11.8%.
In the case of `Cc1nn(Cc2ccccc2)c(Cl)c1/C=C/C(=O)OC(C)C(=O)N1CCCC1` (stereo not shown) it was 10.7%; in that of `CSCCC(NS(=O)(=O)c1ccc2c(c1)oc(=O)n2C)C(=O)NC1CCCc2ccccc21` (stereo not shown), 3.7%.
